# Experimental data reported in article PMC4336329 (PLoS ONE, 2015).
# Screen size: about 310,000 compounds; about 14,000 (4.5%) showed an effect of 50% or more. Effects have a minus sign here. Some of the results follow.
# Target: human ether-à-go-go-related gene (hERG) potassium channel (human, UniProt Q12809)
# Assay: primary screen, population patch clamp on CHO cells stably expressing hERG
# 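Also: peak tail current of the secondary pulse compared with the same well before compound.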
# Chain of human ether-à-go-go-related gene (hERG) potassium channel (Q12809 whole entry, looked up): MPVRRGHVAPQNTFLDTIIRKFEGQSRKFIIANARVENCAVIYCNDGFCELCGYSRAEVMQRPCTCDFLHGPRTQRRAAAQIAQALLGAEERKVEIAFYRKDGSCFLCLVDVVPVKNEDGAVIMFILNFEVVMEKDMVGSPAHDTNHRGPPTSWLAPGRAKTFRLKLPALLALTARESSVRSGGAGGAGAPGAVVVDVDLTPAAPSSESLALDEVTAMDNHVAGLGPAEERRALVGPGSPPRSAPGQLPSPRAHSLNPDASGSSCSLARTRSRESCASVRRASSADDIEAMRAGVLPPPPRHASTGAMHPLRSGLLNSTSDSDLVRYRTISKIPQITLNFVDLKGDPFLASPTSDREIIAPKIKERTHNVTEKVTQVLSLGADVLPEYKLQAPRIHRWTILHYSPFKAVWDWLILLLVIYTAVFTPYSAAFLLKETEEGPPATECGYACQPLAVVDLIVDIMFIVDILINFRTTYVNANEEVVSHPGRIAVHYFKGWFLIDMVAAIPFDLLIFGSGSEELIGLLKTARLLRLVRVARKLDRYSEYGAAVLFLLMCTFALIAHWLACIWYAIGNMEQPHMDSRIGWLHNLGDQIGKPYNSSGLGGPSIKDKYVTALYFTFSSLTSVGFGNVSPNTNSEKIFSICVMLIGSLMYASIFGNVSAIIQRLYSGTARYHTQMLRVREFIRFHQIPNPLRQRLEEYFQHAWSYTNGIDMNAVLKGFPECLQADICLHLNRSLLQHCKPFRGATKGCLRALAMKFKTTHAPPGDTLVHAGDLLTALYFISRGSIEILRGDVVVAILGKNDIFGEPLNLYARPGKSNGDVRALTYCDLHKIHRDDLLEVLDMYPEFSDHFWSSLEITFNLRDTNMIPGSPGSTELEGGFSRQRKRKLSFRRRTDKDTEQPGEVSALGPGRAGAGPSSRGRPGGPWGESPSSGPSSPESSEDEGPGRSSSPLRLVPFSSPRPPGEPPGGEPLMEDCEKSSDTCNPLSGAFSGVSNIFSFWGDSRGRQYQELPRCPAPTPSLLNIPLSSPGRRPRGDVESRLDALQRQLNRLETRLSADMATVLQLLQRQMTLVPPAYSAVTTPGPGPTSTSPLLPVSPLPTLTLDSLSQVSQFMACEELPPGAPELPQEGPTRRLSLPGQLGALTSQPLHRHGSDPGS
row,Structure (SMILES),"hERG current change (%, negative = inhibition) at 10uM [%]"
1,O=C(NC(=S)Nc1ccc(Cc2ccncc2)cc1)c1ccccc1F,-3.24
2,Cc1ccc(-c2nc(CSc3nc4ccccc4c(=O)n3CCO)cs2)cc1,5.39
3,CC12CN3CC(C)(CN(C1)P3(=O)Oc1ccccc1)C2=O (centres unmarked),8.3
4,CC(C)c1onc(C(=O)N2CCCCC2C)c1[N+](=O)[O-] (centres unmarked),12.7
5,Cc1ccoc1C(=O)Nc1cccc(Oc2ccccc2)c1,5.12
6,O=C(COC(=O)Cc1ccccc1F)Nc1ccccc1[N+](=O)[O-],-9.66
7,CCn1c(SCC(=O)Nc2ccc3c(c2)OCO3)nc2c1c(=O)n(C)c(=O)n2C,-0.539
8,O=C(O)C1CCCN(S(=O)(=O)c2ccc(-c3ccc(=O)[nH]n3)s2)C1 (centres unmarked),16.5
9,COc1ccc(CNC(=O)CCSc2nc(-c3ccc4c(c3)OCO4)cc(C(F)(F)F)n2)cc1,-4.91
10,CN(CCc1ccccn1)C(=O)CC1C(=O)NCCN1Cc1cccc(F)c1 (centres unmarked),9.31
11,O=C(NCc1ccccc1)C(c1ccco1)N(C(=O)c1ccccn1)c1ccc(F)cc1 (centres unmarked),2.64
12,CCOC(=O)n1c(=O)n(Cc2ccc(Cl)c(Cl)c2)c2ccccc21,2.5
13,COc1ccc(N(CC(=O)N/N=C/c2cccnc2)S(=O)(=O)c2ccccc2)c(OC)c1,-40.6
14,CCN(CC)c1ccc2cc(/C(N)=N/NC(=O)c3cccs3)c(=O)oc2c1,-3.48
15,Cc1cc(-c2nc3ncccc3o2)ccc1N,4.26
16,CCc1nc2oc3ccc(C)cc3c(=O)c2cc1C(=O)OC,12.1
17,c1ccc(-c2onc3cc4c(cc23)OCCO4)cc1,-6.45
18,COc1ccc(C2NC(=S)NC3=C2N2CCC3CC2)cc1 (centres unmarked),2.77
19,CCC(NC(=O)c1ccccc1NC(=O)c1ccco1)C(=O)NNC(=O)c1ccncc1 (centres unmarked),8.86
20,Cc1ccc(S(=O)(=O)N(C)C)cc1NC(=O)c1n[nH]c(=O)c2ccccc12,12
21,COc1ccccc1Cn1c(=S)[nH]c2cc(C(=O)NCC(OC)OC)ccc2c1=O,16.1
22,O=C(c1ccc2nsnc2c1)N1CCN(c2ccc([N+](=O)[O-])cc2)CC1,-75.5
23,NS(=O)(=O)c1ccc(N=Nc2ccc(O)c3ncccc23)cc1,19.3

row,Structure (SMILES),"hERG current change (%, negative = inhibition) at 10uM [%]"
1,CCCC(=O)Nc1ccc2c(c1)nc1n2CCOC1,6.13
2,C=C(Cl)COc1ccc2c(CCC)cc(=O)oc2c1,-45.7
3,O=C1CC(C(=O)N2CCc3ccccc32)CN1c1cccc(C(F)(F)F)c1 (centres unmarked),3.75
4,COC(=O)C(NC(=O)c1ccco1)(Nc1cc(C)ccn1)C(F)(F)F (centres unmarked),5.63
5,O=C(NC1CCCN(CCc2ccccc2)C1)C1CCCC1 (centres unmarked),-36.7
6,COc1cccc(C(=O)Nc2ccccc2-c2ccccc2)c1,-34.4
7,CC(=O)Nc1ccc(S(=O)(=O)Nc2cccc(C(=O)Nc3ccccc3C(=O)O)c2)cc1,-16.5
8,CCOc1ccc(NC(=O)CN(C)C(=O)c2cc(S(=O)(=O)N3CCCCCC3)ccc2OC)cc1OCC,-9.8
9,Cc1ccc2c(c1)C1CN(C)CCC1N2C(=S)NC(=O)c1ccc(Cl)cc1Cl (centres unmarked),-71
10,CCC1(C)CC(CCNS(=O)(=O)c2ccc(C)cc2)(c2ccc(C)cc2)CCO1 (centres unmarked),12.6
11,CCOc1ccc(NC(=O)CSC2=NCCN2)cc1.Cl,-2.9
12,CCCC(C(=O)Nc1ccc2c(C)cc(=O)oc2c1)c1ccccc1 (centres unmarked),14.1
13,Cc1ccc(C(C)NC(=O)C2CCCC2)c(C)c1 (centres unmarked),-13.4
14,O=C(Nc1ccc(N2CCOCC2)c(Cl)c1)c1cc2ccccc2o1,-36.1
15,Cc1noc(C)c1S(=O)(=O)N(CC(=O)NC1CCC(C)CC1)c1ccc(C(C)C)cc1 (centres unmarked),21.1
16,O=C(O)c1cccc(S(=O)(=O)N(Cc2ccccc2)c2ccccc2)c1,20.1
17,CCC/C=N/NC(=O)c1cc(-c2ccccc2)nc2ccccc12,8.94
18,CC(=O)Nc1ccc(S(=O)(=O)NC(C)CCc2ccccc2)cc1 (centres unmarked),2.82
19,COc1ccc(C(C)=O)cc1CSc1nc2ccccc2c(=O)n1-c1ccccc1,-2.17
20,COc1ccc(C(=O)CN2C(=O)c3ccccc3S2(=O)=O)cc1Br,14.4
21,CCCCC1=CC2=C(c3ccco3)C(=O)C(C)(OC(=O)c3ccc(OC)cc3)C(=O)C2=CN1CCc1ccccn1 (centres unmarked),0.988
22,O=C(Nc1ccccc1Br)c1ccccc1-c1ccccc1,-1.81
23,Cc1nn(C)c(C)c1/C=C1/SC(=S)NC1=O,15.9

row,Structure (SMILES),"hERG current change (%, negative = inhibition) at 10uM [%]"
1,CCOC(=O)c1oc2ccccc2c1CSc1nnnn1-c1ccc(OC)cc1,4.85
2,O=C1c2[nH]nc(-c3ccccc3O)c2C(c2ccc(F)cc2)N1Cc1ccco1 (centres unmarked),-9.23
3,CCOCCCNC(=O)CCNS(=O)(=O)c1ccc(C)cc1,3.47
4,COc1cc(N=c2ssnc2Cl)c(OC)cc1Cl,9.01
5,C=CCc1ccc(OCCCOc2ccc(C(=O)O)cc2)c(OC)c1,-1.14
6,CCN(CC)CCOC(=O)c1ccc(N)cc1.Cl,2.06
7,CC1(C)CC(NC(=O)C2CCN(S(=O)(=O)c3cccc(C(F)(F)F)c3)CC2)CC(C)(C)N1,-0.514
8,CN(c1ccc(C(=O)Nc2ccccc2C(F)(F)F)cc1)S(C)(=O)=O,-2.06
9,CCC(C)NCC(=O)Nc1ccc([N+](=O)[O-])cc1C(=O)Nc1ccccc1F (centres unmarked),-34.7
10,CN(c1ccc(OCC(=O)Nc2nc3ccccc3s2)cc1)S(=O)(=O)c1ccccc1,5.14
11,CCCCC(=O)Nc1ccc(N2CCN(c3ccc(F)cc3)CC2)cc1,23.6
12,Cn1c(CNc2ccc(O)cc2)nc2ccccc21,5.16
13,O=C(CSc1oc(-c2ccc(F)cc2)nc1S(=O)(=O)c1ccccc1)NCC1CCCO1 (centres unmarked),-14.4
14,Cn1c(-c2ccc(N)cc2)nc2ccccc21,-3.42
15,CC(C)C1=NN(C(=O)c2ccccc2)C(O)(C(C)(C)C)C1 (centres unmarked),4.49
16,COc1cccc(C(=O)Oc2ccc3c(C)cc(=O)oc3c2C(C)=O)c1,0.342
17,CCOC(=O)C1CCCn2c1nc1sc3c(c1c2=O)CCCC3 (centres unmarked),-21.1
18,O=C(Cc1ccccc1)NCC1COc2ccccc2O1 (centres unmarked),2.3
19,Cc1cc(NC(=O)COC(=O)c2oc3c(ccc4ccccc43)c2C)no1,20.6
20,Clc1ccc(-c2nnc(-c3ccccc3)nc2N2CCSCC2)cc1,-2.38
21,CC(C)Nc1nc(Cl)nc(NC2CCCCC2)n1,16.6
22,CNC(=O)c1cc(S(=O)(=O)Nc2ccc(C)cc2C)ccc1C,10.6
23,CCOc1ccc(C(=O)COC(=O)c2c(-c3ccccc3)noc2C)cc1,-0.244

row,Structure (SMILES),"hERG current change (%, negative = inhibition) at 10uM [%]"
1,COC(=O)C(O)(c1cn(C)c2ccccc12)C(F)(F)F (centres unmarked),15.1
2,COc1cccc(/C=N/NC(=O)CC2C(=O)NN=C2C)c1OC (centres unmarked),2.5
3,c1ccc2[nH]c(CCCCc3nc4ccccc4[nH]3)nc2c1,-36.5
4,Cc1ccccc1C(=O)NNS(=O)(=O)c1cccc([N+](=O)[O-])c1,22.7
5,COc1ccc(-c2cc(=O)c3cc(F)ccc3[nH]2)cc1,11.4
6,CC(C)c1ccc(NC(=S)N(C)CCc2ccccn2)cc1,-8.91
7,Cc1occc1C(=O)N1CCC2(CC1)OCCO2,1.9
8,COn1c(=S)[nH]c2ccccc2c1=O,6.51
9,CCNC(=O)CC1C(=O)N(c2ccc(OC)cc2)C(=O)N1Cc1ccc(OC)cc1 (centres unmarked),-9.1
10,Cc1nc(N2CCN(C(=O)c3ccco3)CC2)c2c3c(sc2n1)CCCC3,-64.1
11,CCN(CC)C(=O)C1=C(C)NC(=O)NC1c1c(F)cccc1Cl (centres unmarked),-2.87
12,Cc1onc(-c2ccccc2)c1NC(=O)N(CCC(=O)O)Cc1ccccc1,2.16
13,CCOc1ccccc1NCc1cc(=O)oc2cc(C)ccc12,19.4
14,COCCn1nnnc1C(c1cc2ccc(C)cc2[nH]c1=O)N(Cc1ccco1)Cc1cccs1 (centres unmarked),-26.8
15,CCOc1ccc(-c2csc(/C(C#N)=C\c3ccc(O)c([N+](=O)[O-])c3)n2)cc1,17.5
16,O=C(NC(Cc1c[nH]c2ccccc12)C(=O)NCCCN1CCOCC1)c1cccs1 (centres unmarked),-21.1
17,CC1(C)SCC(C(=O)O)NC1=O (centres unmarked),23.9
18,CC1CCCCN1S(=O)(=O)c1ccc2c(c1)CCN2C(=O)C1CC1 (centres unmarked),5.91
19,COC(=O)N/N=C/c1ccc(/C=N/NC(=O)OC)cc1,15.5
20,COc1ccc(C(=O)c2sc(Nc3ccccc3F)nc2N)cc1,3.23
